# Experimental data reported in PubChem BioAssay AID1347073 (National Center for Advancing Translational Sciences (NCATS), 2019).
# Out of some 45,000 compounds screened, about 200 (0.44%) were called active. About 7% were inconclusive and are not listed. Calls come from the whole dose curve; as a rule, active = well fitted activation curve with a large enough effect; inconclusive = small, poorly fitted or top-dose-only effect; inactive = no such curve, though single readings can be large or run the other way. Some of the results follow.
# Experiment: qHTS of TDP-43 Inhibitors: NCGC Sytravon Library Screen; note: 0% is about no effect; nearly all actives have a fitted effect of over 55% in size
# Conditions: yeast TDP-43 toxicity rescue, BacTiter-Glo growth, 24 h; series mostly up to 46.1 µM; growth rescue (activation): at the top concentration
# Outline: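 TDP-43-expressing yeast, pregrown in raffinose, seeded at OD600 0.02 in galactose medium with compound for 24 hr at 30 deg C. Growth read by BacTiter-Glo luminescence, so rescue of toxicity appears as activation.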
row,Structure (SMILES),growth rescue (activation)
1,Cc1cc(C)n2cc(CSc3ccc(Br)cc3)nc2n1,inactive: 16%
2,CN(Cc1nc2ccccc2s1)C(=O)c1ccc(F)cc1,inactive: 0.189%
3,Cc1cc(/C=N/NC(=O)C(=O)NCc2ccccn2)c(C)n1-c1cccc(Br)c1,inactive: 22%
4,COc1ccc(C(=O)c2ccc(OC)c(Br)c2)cc1Br,inactive: 25.4%
5,CCCCN1C(=O)CC(Sc2ncccc2C(=O)O)C1=O (stereo unspecified),inactive: 3.01%
6,Cn1cc(-c2coc3c(C(=O)NCc4cccnc4)cccc23)cn1,inactive: 7.29%
7,COc1ccccc1-c1c(C)nn2c(N)c(-c3ccccc3)cnc12,inactive: 19.8%
8,Cc1ccc(S(=O)(=O)Nc2ccc3cn[nH]c3c2)cc1C,inactive: 2.92%
9,Cc1ccc(CN(CC(=O)NCc2ccccn2)S(=O)(=O)c2ccccc2)cc1,inactive: 2.61%
10,O=C(O)CCc1nn2cc(-c3ccccc3)nc2[nH]c1=O,inactive: 4.2%
11,CC(C)c1ccc(NC(=O)CCNC(=O)Cn2ccc3ccccc3c2=O)cc1,inactive: 9.94%
12,CCOc1cc(/C=C/C(=O)O)ccc1OCCOc1ccc(F)cc1,inactive: 9.38%
13,CCOCCCNC(=S)Nc1ccc2nc3n(c(=O)c2c1)CCCCC3,inactive: 2.37%
14,Oc1cccc(C(O)CNCc2ccc(OCc3ccc(Cl)cc3Cl)cc2)c1 (stereo unspecified),inactive: 21.8%
15,CCC(C)(C)NC(=O)C(c1ccc(O)cc1)N(CCOC)C(=O)CCC(=O)Nc1nccs1 (stereo unspecified),inactive: 32.9%
16,COc1cc(NC(=S)N2CCN(C/C=C/c3ccccc3)CC2)cc(OC)c1,inactive: -5.49%
17,CC(NC(=O)COC(=O)c1ccc(Br)o1)c1ccccc1 (stereo unspecified),inactive: -3%
18,CC(C)N1CCC(N2CCN(Cc3ccc4nsnc4c3)CC2CCO)CC1 (stereo unspecified),inactive: -8.19%
19,Cc1ccc(OCC(=O)Nc2cccc(S(=O)(=O)N3CCCCC3)c2)c([N+](=O)[O-])n1,inactive: -16.7%
20,CCC(=O)N(C)CCc1cc2c(c(OC)c1/C=N/NC(=O)[C@H]1C[C@@H]1c1ccccc1)OCO2,inactive: -0.34%
21,Cn1c(CC(=O)Nc2ccccc2)nnc1SCC(=O)NC1=NCCS1,inactive: 5.45%
22,COc1ccc(CN2C(=S)NC(C)(C)CC2(C)O)cc1 (stereo unspecified),inactive: 2.56%

row,Structure (SMILES),growth rescue (activation)
1,O=C(/C=C/c1ccccc1[N+](=O)[O-])NCc1cccnc1,inactive: 1.21%
2,C/C(=N\Nc1nncc2ccccc12)c1ccc(OCC(=O)N(C)C)cc1,inactive: 13.2%
3,COC(=O)/C=c1\[nH]c2nnc(C)n2c1=O,inactive: 3.68%
4,Cc1ccc(C(=O)NNC(=O)/C=C\C(=O)O)cc1,inactive: 12.5%
5,CCOc1ccc(S(=O)(=O)Nc2nc3ccccc3nc2Nc2ccc(N3CCOCC3)cc2)cc1,inactive: 9.67%
6,CC(C)COc1ccc(C(=O)Nc2scc(-c3ccc(Br)cc3)c2C(=O)OC(C)C)cc1,inactive: -0.578%
7,COc1ccccc1NC(=O)C(C)N(C)Cc1ccc(Cl)s1 (stereo unspecified),inactive: 5.27%
8,CC(C)Oc1ccc(S(=O)(=O)N2CCCCC2)cc1NC(=O)CN1C(=O)NC(C)(C2CC2)C1=O (stereo unspecified),inactive: 22.3%
9,CCOC(=O)c1c(NC(=O)CSc2ncnc3[nH]ncc23)sc2c1CCC(C)C2 (stereo unspecified),inactive: -1.56%
10,O=C(CSc1nnc2c(Cl)cc(Cl)cn12)N1CCN(c2ccc(F)cc2)CC1,inactive: -21.6%
11,CCSc1nc2sccc2c(=O)n1-c1ccccc1,inactive: 24.7%
12,Cc1cc(-c2n[nH]c(=S)n2/N=C/c2cccc(O)c2)n[nH]1,inactive: -1.49%
13,O=C(Nc1cccnc1Cl)c1ccc(=O)oc1,inactive: -6.05%
14,CSc1cccc(NC(=O)c2[nH]c(C)c(C(C)=O)c2C)c1,inactive: -10.3%
15,O=c1[nH]nc(-c2ccc(NCCCO)c([N+](=O)[O-])c2)c2ccccc12,inactive: 1.3%
16,CC(NC(=O)COC(=O)C1=NN(c2ccccc2)C(=O)CC1)c1ccccc1 (stereo unspecified),inactive: 10.7%
17,CCC1(CC)NC(=O)N(CC(=O)NC(=O)NCc2ccccc2)C1=O,inactive: -7.73%
18,CC1CCCCN1C(=O)c1cccc(NC(=O)c2ccccc2)c1 (stereo unspecified),inactive: 9.5%
19,CCCn1c(O)c(CN2CCCC(C)C2)c(C)c(C#N)c1=O (stereo unspecified),inactive: 6.07%
20,CC(=O)Nc1ccc(S(=O)(=O)N(C)c2ccc(OCCOc3cccc(C)c3)cc2)cc1,inactive: 6.54%
21,O=C(O)COc1ccccc1/C=N/NC(=O)CSc1nc2ccccc2c(=O)n1-c1ccccc1,inactive: 1.7%
22,CCOC1=C/C(=C/c2c(N)n3nc(-c4ccccc4)sc3nc2=O)C=CC1=O,inactive: -14.6%

row,Structure (SMILES),growth rescue (activation)
1,O=C(Nc1ccc(F)cc1)c1ccc(=O)[nH]n1,inactive: 2.99%
2,CCOC(=O)CNC(=O)CSc1nc2c(C)cccc2cc1CC,inactive: -11.2%
3,Cc1cccc(C(=O)N[C@H](C(=O)NCCc2ccc(S(N)(=O)=O)cc2)C(C)C)c1,inactive: 19.2%
4,Cn1c(CNC(=O)c2ccc3c(c2)OCO3)nnc1SCC(=O)Nc1ccc(F)cc1F,inactive: -7.51%
5,CC(/C=N/NC(=O)CSc1nc2ccccc2n1C)=C\c1ccco1,inactive: 16.6%
6,Cc1nc2ccc(S(=O)(=O)NCC(=O)N3CCC(C)CC3)cc2s1,inactive: -16.8%
7,CC(=O)c1c(C(C)=O)c(C)n(-c2ccc(C(=O)O)cc2)c1C,inactive: -39.6%
8,O=C(COC(=O)c1cccc(S(=O)(=O)N2CCCCC2)c1)NC1CCCc2ccccc21 (stereo unspecified),inactive: 10.8%
9,C=CCNC(=O)COC(=O)CCC(=O)c1cccs1,inactive: 1.85%
10,COc1ccc(NC(=O)C(=O)N/N=C/c2cccnc2)cc1,inactive: -4.96%
11,CNC(=O)NC(=O)CSc1ccc(S(=O)(=O)N(C)C2CCCCC2)cn1,inactive: 11.2%
12,CCOC(=O)NC(=S)Nc1cccc(NC(=S)NC(=O)OCC)c1,inactive: 4.92%
13,COc1ccc(OC)c(NC(=O)c2cccc(S(=O)(=O)N(Cc3ccccc3)c3ccccc3OC)c2)c1,inactive: -21.8%
14,CS(=O)(=O)N1CCC(C(=O)Nc2cccc(Cl)c2Cl)CC1,inactive: 3.1%
15,O=C(CSc1cn[nH]n1)Nc1cccc(C(=O)O)c1,inactive: 12.4%
16,C1=CC2CC1CC2CN1CCN(Cc2ccccc2)CC1 (stereo unspecified),inactive: -41.5%
17,O=C(CSc1ncnc2sc3c(c12)CCC3)Nc1ccccc1C(=O)O,inactive: 1.51%
18,O=c1[nH]ncc(N/N=C\c2cccs2)c1Cl,inactive: 6.77%
19,CSCCC(NC(=O)c1ccccc1)C(=O)NCCc1ccc2c(c1)OCCO2 (stereo unspecified),inactive: -16.5%
20,CC1CCN(C(=O)CCc2nnc(-c3ccccc3)o2)CC1,inactive: -6.47%
21,COc1ccc(C/C(C)=N/NC(=O)c2cc(C)oc2C)cc1,inactive: -23.9%
22,c1ccc(-c2nnc(SCC3CCCO3)nc2-c2ccccc2)cc1 (stereo unspecified),inactive: 1.51%

row,Structure (SMILES),growth rescue (activation)
1,c1ccc2c(c1)oc1c(-c3ccc4nccn4c3)cccc12,inactive: 17%
2,CCOC(=O)c1c(NC(=O)CN2C(=O)NC(C)(c3ccc(Cl)cc3)C2=O)sc(C(=O)NC)c1C (stereo unspecified),inactive: 9.96%
3,COC(=O)CN(c1ccc(C)cc1)S(=O)(=O)c1ccc(F)cc1,inactive: 26.5%
4,COc1ccc(OC2(C)CCN(Cc3ccccc3OC(F)F)C2)cc1 (stereo unspecified),inactive: 5.95%
5,COc1ccccc1NC(=O)CSc1n[nH]c(-c2ccco2)n1,inactive: 3.3%
6,O=c1oc2ccccc2c(Nc2cc3ccccc3cc2O)c1[N+](=O)[O-],inactive: -1.04%
7,COc1ccc(C2CC(c3ccccc3)=NN2C(=O)COC(=O)c2cc(S(=O)(=O)N3CCOCC3)ccc2F)cc1 (stereo unspecified),inactive: -12.4%
8,COc1ccc(S(=O)(=O)N(C)c2ccc(C(=O)NC3CCCC3)cc2)cc1,inactive: 16.2%
9,CSc1ccc(/C=C(/NC(=O)c2ccccc2)C(=O)NCCCn2ccnc2)cc1,inactive: 6.32%
10,Cc1c(Cl)cccc1-n1nnc(-c2nc(-c3ccc4c(c3)OCO4)no2)c1C,inactive: 8.91%
11,COc1ccc(NC(=O)c2cc(-c3ccc(OC)c(OC)c3)nc3ccccc23)c(OC)c1,inactive: 15.3%
12,COc1ccc(OC)c(NC(=O)COC(=O)c2nc(Cl)ccc2Cl)c1,inactive: 32.6%
13,C=CCN(C)NC(=S)Nc1ccccc1,inactive: 27%
14,CCCSc1ncc(Cl)c(C(=O)Nc2sc3c(c2C(N)=O)CCCC3)n1,inactive: 8.56%
15,Cc1ccc(N(CC(=O)NC(C)C)C(=O)CCC(=O)Nc2nccs2)cc1C,inactive: -4%
16,CCc1nc2c(OCc3ccc(C(F)(F)F)cc3)cccn2c1N(C)C(=O)c1ccc(C)cc1,inactive: 25%
17,CCc1ccccc1N(CC(=O)NCc1ccccc1)C(=O)CCC(=O)Nc1ccccn1,inactive: -6.4%
18,Cc1ccc2c(c1)C(=NC1CCCCC1)c1cc3ccccc3nc1-2,inactive: -6.37%
19,CCCCNC(=O)C1(C)CCCCN1C(=O)c1cccs1 (stereo unspecified),inactive: 5.92%
20,COc1ccccc1NC(=S)N(c1ccccc1)C(C)C,inactive: 12.3%
21,Cc1nn(C)cc1C(C)Nc1nc2nonc2nc1N1CCCCC1 (stereo unspecified),inactive: 10.4%
22,CSc1ccccc1NC(=O)CSc1nncs1,inactive: 4.15%

row,Structure (SMILES),growth rescue (activation)
1,CCOc1ccc(/C=N/NC(=O)c2ccccc2NC(=O)c2ccc(OC)cc2)cc1,inactive: -17.5%
2,CCOC(=O)C1=NNC(C(=O)c2ccccc2)C1c1ccc(Cl)cc1 (stereo unspecified),inactive: 19.8%
3,Cc1csc(SCC(=O)Nc2nncs2)n1,inactive: 0.469%
4,Cc1cc2n(n1)CCCN2C(=O)Nc1ccc(C)c(Cl)c1,inactive: 16.7%
5,CN(c1ccccc1)S(=O)(=O)c1nnc(NC(=O)c2cccs2)s1,inactive: -8.62%
6,CC(C)N(C(=O)CSc1ncnc2sc(-c3ccccc3)cc12)C(C)C,inactive: 10.8%
7,Cn1c(=O)c2c(ncn2CC(=O)OCC(=O)Nc2ccc(Cl)cc2Cl)n(C)c1=O,inactive: 9.43%
8,O=C(Cc1cccs1)Nc1nnc(C2CC2)s1,inactive: -2.4%
9,O=C(c1cc(-c2cccc(Cl)c2)on1)N1CCCCCC1,inactive: 33.8%
10,COc1ccc(CC(=O)Nc2nc(OCCN3CCCC3=O)cnc2-c2cccc(C(F)(F)F)c2)cc1,inactive: 3.54%
11,CC(/C=N/NC(=O)c1ccc(CN2c3cccc4cccc(c34)S2(=O)=O)cc1)c1ccccc1 (stereo unspecified),inactive: 3.2%
12,COc1ccc(Cl)cc1-c1noc([C@@H]2O[C@H](CO)[C@H](O)[C@H](O)[C@H]2O)n1,inactive: 2.17%
13,Cc1cc(C(=O)N/N=C/c2ccncc2)c2ccccc2n1,inactive: 3.08%
14,O=C(N/N=C/C=C\c1ccc([N+](=O)[O-])cc1)c1cccnc1,inactive: 4.21%
15,Cc1onc(-c2ccccc2)c1C(=O)N1CCOC12CCN(c1cccc(F)n1)CC2,inactive: 11.4%
16,Cc1nnc(SCC(=O)Nc2cccc([N+](=O)[O-])c2)n1CC1CCCO1 (stereo unspecified),inactive: -0.747%
17,CCOc1ccc(S(=O)(=O)N2CCC(C(=O)N3CCN(C)CC3)CC2)cc1Cl,inactive: 3.74%
18,CN1C(=O)[C@@H]2[C@@H]3C[C@@H]([C@H]4ON=C(c5ccccc5OCC#N)[C@@H]34)[C@@H]2C1=O,inactive: 3.41%
